Data reported in the supplement of paper PMC10126150.
Sequences with one replicate were seen in a single cluster, so their values are uncertain.

Test system: ATP
Assay: switch fluorescence ratio, 500 uM ATP over buffer (Cy3 cluster intensity, sum of 5 cycles each) (fold (ratio)); higher = stronger signal-on switching upon ATP binding; sequences stand for … in TCGTCGGCAGCGTCAGATGTGTATAAGAGACAGTTTTTTTTTTTTTTTTTTTTTTTTT…TC
Conditions: aptamer strand: ATP DNA aptamer (quencher-CACCTGGGGGAGTATTGCGGAGGAAGG + anchor), 100 nM annealed; ATP concentration: 500 uM; one replicate
Outline: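 The fluorescence ratio divides summed target-cycle Cy3 intensity by summed buffer-cycle Cy3 intensity for each cluster and is averaged per switch-domain sequence. Cy3-labelled switching-strand clusters on a modified Illumina MiSeq flow-cell were annealed to 100 nM quencher-labelled ATP aptamer, then imaged in selection buffer and again after 15 min with 500 uM ATP at 22 °C. Five such cycles were run, with NaOH stripping and re-annealing between them, and clusters outside 100-1000 RFU were excluded.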
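Note: ATP exposure 15 min at 22 °C before imaging.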

Sequence	switch fluorescence ratio
GACGGTTCGA	0.974
GATAGTCTAG	0.98
AACATGCACG	1.09
CCGTCTTAAC	1.4
GGGAGGTGG	1.1
TCGCGTCAAG	1.04
CCTCTTGTAA	5.76
TGAAAGCTCT	0.984
TTACACACGC	1.47
CTTTCGGTGG	0.972
TCGTTTTGAA	1.06
TTTAGATCTC	0.945
CGAGGTAATC	2.51
TCCGGGCGGC	1.13
CAGAGCATGG	1.02
AATGACGGAA	1.05
ACGAAAGAAG	1.02
CGCCTGATCA	0.969
AGTGGCTGCT	0.953
GATAAACAAC	1.01
AGTAGCTATG	0.96
TCGGTCCCCC	1.03
ACGAGGAAGG	0.99
AAACATTTTA	1.03
ACATTAGCGA	0.762
CTCATCTTCC	2.17

Sequence	switch fluorescence ratio
AGCGTACCGT	1.03
CAGAAAGCG	1.05
GCATGCCGCG	0.987
GGTCGCTAGG	0.966
TGATCCCGCT	1.01
TGTGGTGCTC	0.968
TAAACGTTGA	1.01
GAGCAATGTA	1.33
TAAGAGCGCC	1.09
TACCGTGCAG	1.16
TAACCTGTTG	0.996
ACAAATCCGA	0.937
CGGATTAAAG	1.01
AGTGATGTTT	0.983
GCGGCCGTAA	0.999
GGCCGAAATT	1.02
GTGGCGAATC	0.984
CGGGCTCTAT	0.993
TGAGGAGCT	0.972
TTACAAATAT	1.06
GCAGAAAACT	1.33
GGGAGGATAA	0.988
GTTCGCATGT	1.08
GCAACAACTA	1.04
GCCAGTACGC	1.03
TTCTTTACGT	1.01

Sequence	switch fluorescence ratio
GCGCGGACGA	1.05
AGGCCTGGAG	0.96
CCAGTGCTGA	1.03
TCGTGGATTT	0.97
AAGCACAAGT	1.17
AACGTTCGGA	1.06
AGGAATGCCA	0.988
ATTAACGTCG	1.05
TCTAACGATA	1.03
AGGTTTTCAA	0.998
GTGTTTAAAT	1.05
GGTTTGTGTC	0.961
ATCTGTGGTG	0.974
ATTTAGATCC	0.969
AAGGGCAAGA	0.986
GACTCGGCTT	0.981
TCAGTTATGA	0.981
TTGTCCGGTG	1.05
TTTGACATG	1.1
CGTACCACCT	1.08
CGTCGATTCA	0.992
TGTGCTAACT	0.978
ACGATTACGC	1.19
TGAGGGCCTC	0.982
GGTCTAAAT	0.986
ACATTTCCG	1.06

Sequence	switch fluorescence ratio
CCTAGTCTTG	1.01
TATCGGCGTA	0.922
GTTATCTAGG	1
CTCACCTCGA	1.01
TTTACTGCTA	1.2
TGAGAGAATC	1.03
TCAATGCTA	1.01
TTTGTGGTGT	1.24
GCCGTTAAAC	1.03
ACGTAAAGA	1.06
TACAGGGGTT	1
TCGATAGATT	0.998
TGAGCAAGGA	1.21
CTTAAGGGGT	0.95
TCGTGGCTGA	1.03
TATCGAGAGG	0.973
TTGAGTCATA	1.02
TCCTGATCGG	0.997
CTTGCGTGGA	1.02
ACCCTGGTTT	1.06
TGGTATTCGG	0.985
GCGGTCTAAA	1
TGATTGGAAA	0.938
GGTATAAGGC	0.992
CTGTTAGCTA	1.24
TGAAATGGGC	0.956

Sequence	switch fluorescence ratio
GCTTAGGAAC	1.01
CACCACAAGC	2.26
CCATGTCACC	1.08
GCATGTCACA	1.01
AACCTGTGCG	1.08
GGATGAAAGA	1
CGCGATTTCT	1.24
GTCAGCAAGC	3.47
GGAGGCCCTT	1
TCGGCGTTCG	1
GCCTTAGTGT	0.99
CATGCTCACT	1.06
CTCTGATCAG	0.975
TCTCAAGCGG	1.16
TACATCCTAG	0.987
TAAGGTACCA	0.997
CCGAGTTCGA	1.23
AGGCACGTTT	1.02
TAGGTATAC	1.07
AGGTTCCCAT	0.991
GCCTTGGTTT	0.982
CTTATCGCTT	0.961
ACGGGGCTCC	1
TAATCAGAGT	0.997
TTTGCACCAA	1.02
TTCTGATGGG	1.01

Sequence	switch fluorescence ratio
TTGGTTCCTA	1.02
ACGGCGAGGA	1.07
GCTATGGTGT	0.987
CCTGTGTTTG	1.06
GCAGTCGACC	1.12
AGAGAGGTCT	0.995
TATAGACGTC	1.01
TATGCACTCG	1.06
AAAATTATA	0.969
ACGCTATGAT	1.2
CTAAAATCTT	1
GAGAGACACC	0.953
GGAGCCCGTG	0.954
CGGAAGGTTA	0.971
GTTAGATCCC	0.982
AGCGAGCTT	1.04
AATGGATTCC	1.02
TTTTGGGTCT	0.976
GGGTTGCCGG	1.01
TCGGCCTGCG	0.936
AGCAGTCGCC	1.04
AATGCGGGAG	0.969
TAGCTGGTTT	0.966
